Among all 410,000 compounds or so, about 5,000 (1.2%) were called active. This list was built around the results that the source calls inconclusive (neither active nor inactive); the mix of calls is not that of the screen. Calls follow the shape of the dose curve; as a rule, active = well fitted inhibition curve with a large enough effect; inconclusive = small, poorly fitted or top-dose-only effect; inactive = no such curve, though single readings can be large or run the other way. A potency beside an inconclusive call is a rough fit, not a confirmed value.
Test: qHTS for Inhibitors of TGF-b; also: nearly all actives have a fitted effect of over 65% in size
Conditions: HepG2 CAGA-GFP TGF-b/SMAD3 reporter, GFP fluorescence, 18 h, TGF-beta stimulated, 500 pg/mL final; series mostly up to 46.1 µM
Outline: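 HEPG2 CAGA-GFP, 1000 cells/well; 2 h settle, 37 C; cpd via pin tool; TGF-b 500 pg/mL final; 18 h, 37 C; GFP imaging ex488/em500-530; %Activity normalised to -TGF-b and +DMSO controls; CRC fit, curve class.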
Potency is read from the fitted curve at half-maximal effect; tags tell the direction and shape of the fitted curve.

Row | Compound | Potency
1 | COc1ccc(OC)c(CN2CCC(C(=O)N3CCN(c4ccccc4F)CC3)CC2)c1 | inconclusive: 10 µM [inhibitor, partial curve, poor fit]
2 | NC(CCc1ccccc1)c1csc(Nc2nccc(C(F)(F)F)n2)n1 (configuration not stated) | inconclusive: 35.5 µM [inhibitor, single point]
3 | CCCCCCCCCCCCCCCCCCNc1ccn(C2OC(COP(=O)(O)OCC3OC(n4cc(F)c(=O)[nH]c4=O)CC3O)C(O)C2O)c(=O)n1 (configuration not stated) | inconclusive: 0.562 µM [inhibitor, full curve]
4 | CCCCNc1c(-c2ccc(OC)c(SC3CCCCC3)c2)nc2ccc(Cl)cn12 | inconclusive: 11.2 µM [inhibitor, partial curve]
5 | O=C1C2C(c3ccccc3)CC=CC2C(c2cccc(Br)c2)N1Cc1ccccc1 (configuration not stated) | inconclusive: 35.5 µM [inhibitor, single point]
6 | CCOC(=O)c1c(CC(C)C)csc1NC(C)=O | inconclusive: 22.4 µM [inhibitor, single point]
7 | CN(C)/N=C/C=C1\CCC/C(=C/c2cccs2)C1=O | inconclusive: 0.112 µM [inhibitor, full curve, poor fit]
8 | CCC(C)(C)NC(=O)c1cc(S(=O)(=O)N2CCCCC2)ccc1N1CCOCC1 | inactive
9 | Cc1cccc(NC(=O)C(=O)NCC(c2cccnc2)N2CCc3ccccc32)c1C (configuration not stated) | inconclusive: 11.2 µM [inhibitor, partial curve, poor fit]
10 | CCOc1ccc(-c2nonc2NC(=O)c2oc3ccc(Cl)cc3c2C)cc1 | inconclusive: 3.16 µM [inhibitor, partial curve, poor fit]
11 | CCCCCCCN(C(=O)CCl)c1ccccc1C | inactive
12 | COc1ccccc1NC(=O)NC1(C(=O)N2CCCCCC2)CCCCC1 | inconclusive: 25.1 µM [inhibitor, single point]
13 | CCC1(c2ccccc2)NC(=O)N(CC(=O)N(C)CC(=O)Nc2cccc(F)c2)C1=O (configuration not stated) | inconclusive: 35.5 µM [inhibitor, single point]
14 | CC(C)CNC(=S)NNC(=O)c1csc2c1CCCC2 | inconclusive: 35.5 µM [inhibitor, partial curve, poor fit]
15 | CCOC(=O)c1c(NC(=O)CCl)sc(C(=O)N(CC)CC)c1C | inconclusive: 25.1 µM [inhibitor, single point]
16 | Nc1ccccc1Sc1c[nH]c2ccccc12 | inconclusive: 22.4 µM [inhibitor, partial curve, poor fit]
17 | CCOc1ccc(CN2CCN(S(=O)(=O)c3ccc(Cl)cc3)CC2)cc1 | inconclusive: 22.4 µM [inhibitor, single point]
18 | C=C(C)COc1ccc(-c2ncncc2-c2ccc(Br)cc2)c(O)c1 | inconclusive: 22.4 µM [inhibitor, single point]
19 | Cc1sc(N/N=C/c2ccco2)nc1-c1ccccc1 | inconclusive: 11.2 µM [inhibitor, single point]
20 | O=C(NCc1ccco1)c1cnn2c(C(F)(F)F)cc(-c3ccco3)nc12 | inconclusive: 6.31 µM [inhibitor, single point]
21 | CN(c1ccccc1)S(=O)(=O)c1cccc(C(=O)NCC(=O)Nc2ccc(F)c(F)c2F)c1 | inconclusive: 25.1 µM [inhibitor, single point]

Row | Compound | Potency
22 | Fc1ccc(CN2CCN(c3ncccn3)CC2)c(F)c1 | inactive
23 | Oc1ccccc1/C=N/Nc1ccccc1 | inconclusive: 35.5 µM [inhibitor, single point]
24 | CC1=C(C(=O)OCCOC(C)C)C(c2cc3c(cc2Br)OCO3)CC(=O)N1 (configuration not stated) | inactive
25 | Cc1cc(O)ccc1Nc1nc2ccccc2nc1Nc1ccc(O)cc1C | inconclusive: 35.5 µM [inhibitor, single point]
26 | Nc1cccc(C2=Nc3cccc4cccc(c34)N2)c1 | inactive
27 | c1ccc(Nc2ccccn2)cc1 | inactive
28 | CCOc1ccccc1NC(=O)c1c(NCc2ccc(C)o2)sc2c1CCCCC2 | inconclusive: 35.5 µM [inhibitor, single point]
29 | Cc1ccc(Cc2nc3ccccc3nc2SCC(=O)N2CCCCC2)cc1 | inactive
30 | Cc1ccc(-c2ocnc2C(=O)Nc2ccccc2NC(=O)c2ccccn2)cc1 | inconclusive: 12.6 µM [inhibitor, single point]
31 | C[C@@]12C(=O)Nc3cc(F)ccc3C(=O)N1[C@H]1c3cc(Br)ccc3OC[C@@H]1[C@@H]2c1ccccc1 | inconclusive: 3.55 µM [inhibitor, single point]
32 | CN1CCN(CC/C=C2/c3ccccc3Sc3ccc(S(=O)(=O)N(C)C)cc32)CC1 | inconclusive: 35.5 µM [inhibitor, single point]
33 | O=C(CCCN1CCc2[nH]c3ccc(F)cc3c2C1)c1ccc(F)cc1 | inconclusive: 22.4 µM [inhibitor, single point]
34 | O=C(Nc1ccccc1)c1ccc(S(=O)(=O)Nc2cccc(O)c2)cc1 | inactive
35 | CCOc1ccc(CC(=O)NCCS(=O)(=O)N2CCN(c3ccccc3OC)CC2)cc1 | inconclusive: 35.5 µM [inhibitor, single point]
36 | CCCCC(=O)Nc1cc(-c2nc3ccccc3o2)ccc1OC | inconclusive: 7.94 µM [inhibitor, partial curve, poor fit]
37 | Cn1cncc1C#Cc1c(-c2ccsc2)sc2ccccc12 | inconclusive: 22.4 µM [inhibitor, single point]
38 | COc1ccc(C(=O)NCC(c2ccco2)N2CCOCC2)cc1OC (configuration not stated) | inconclusive: 35.5 µM [inhibitor, single point]
39 | Cc1ccc(OC/C(O)=C(\C#N)c2nc3ccccc3s2)cc1 | inconclusive: 3.98 µM [inhibitor, full curve]
40 | Fc1ccccc1CNC(=S)Nc1ccc(Cl)cc1 | inconclusive: 25.1 µM [inhibitor, single point]
41 | O=C(CCc1ccncc1)NC1CCCc2c1cnn2-c1ccc(F)cc1F (configuration not stated) | inconclusive: 10 µM [inhibitor, partial curve]
42 | CC(=O)N1c2ccc(S(=O)(=O)N3CCCCCC3)cc2CC1C(=O)NCc1cccc(F)c1 (configuration not stated) | inconclusive: 6.31 µM [inhibitor, partial curve]

Reference: PubChem BioAssay AID588855 (National Center for Advancing Translational Sciences (NCATS), 2011)
